Source: PubChem BioAssay (Tox21)
Several values for one entry are separate records, joined by “and”; a condition that tells them apart may be missing. Identical values can stand only once. The inconclusive results got no clear call from the source; some entries with a clear call stand among them for comparison. For some assays here: Potencies beside an inconclusive call are fits to weak or partial responses and may not hold up. Activity calls are given as the source filed them. Unless noted, the call rests on the fitted dose curve; in most records, active means well fitted cell-killing curve with a large enough effect in the repeat runs; inconclusive means weak or mixed curves; inactive means flat fitted curve, though single readings scatter.

Assay: qHTS assay to identify small molecule antagonists of the estrogen receptor beta (ER-beta) signaling pathway - cell viability counter screen (AID 1259382); further: nearly all actives have a fitted effect of over 55% in size; further: potency means the concentration at half of the fitted maximal effect;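 on activity change, negative = cytotoxicity: HEK293T cells carrying ER-beta-UAS-bla reporter stimulated with estradiol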
Details: ER-beta-UAS-bla HEK293T viability, CellTiter-Glo luminescence, 16 h; series mostly up to 92.4 µM; activity change, negative = cytotoxicity: at the top concentration
Outline: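 Cells: ER-beta-UAS-bla HEK293T, 2,000/well, 2% CS-FBS, 6 hr settle. Cpd + E2 (1nM final), 16 hr, 37C/5% CO2. Bla FRET substrate 2 hr RT, then CellTiter-Glo 30 min RT, luminescence.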
On the % scale 0 is the no-effect control and ±100 the full control effect; tags describe the fitted curve by direction and shape.

Structure (SMILES) | Potency | activity change, negative = cytotoxicity
O=C(Cl)c1cc(C(=O)Cl)cc(C(=O)Cl)c1 | inconclusive: 61.1 µM [cytotoxic, partial curve] | 
c1ccc2sc(SSN3CCOCC3)nc2c1 | inconclusive: 48.5 µM [cytotoxic, partial curve] and inconclusive: 48.6 µM [cytotoxic, partial curve] | 
C#C[C@]1(O)CC[C@H]2[C@@H]3CCc4cc(OC5CCCC5)ccc4[C@H]3CC[C@@]21C | inconclusive: 11.9 µM [cytotoxic, partial curve, poor fit] | 
CCCCCCCCCCCCCCCCOP(=O)([O-])OCC[N+](C)(C)C |  | inactive: -0.764% [at 42.5 µM]
CCCCCCCCCCCCCCCCCCOS(=O)(=O)O | inconclusive: 34.4 µM [cytotoxic, partial curve] | 

Assay: qHTS assay to identify small molecule agonists or antagonists of the thyroid stimulating hormone receptor (TSHR) signaling pathway - wild type cell line counter screen (AID 1259384; calls by dose curve)
Details: HEK293 wild type, cAMP HTRF counter-screen; cAMP activity change: at 92.4 µM (top of the series), stronger effect = higher value unless noted
Outline: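 Wild-type Hek293 cells, 800/well, 18 h at 37C, then compound with Ro20-1724 for 30 min RT. cAMP by HTRF (cAMP-d2/anti-cAMP cryptate), 1 h RT, fluorescence read. 15 concentrations, triplicates.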

Structure (SMILES) | cAMP activity change | Potency
c1ccc2sc(SSN3CCOCC3)nc2c1 | inconclusive: 4.13% | 
Cc1cccc(C)c1NC(=O)C(C)N (stereo not drawn) | inactive: -4.22% [at 42.5 µM, stronger effect = higher value] | 
NC(=O)NC1NC(=O)NC1=O (stereo not drawn) |  | inactive
